The supplement of paper PMC11417369
The other results are listed elsewhere or left out.

system: PfAP2-HC AP2 domain (GST-tagged); assay: gcPBM binding intensity (ln(normalized median fluorescence intensity)); higher = stronger DNA binding
Procedure, shortened: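 Binding of GST-tagged P. falciparum DNA-binding domains, expressed in E. coli and used at about 25 μg on average, was carried out for 1 h in 1× PBS containing 1% milk, 0.2 mg/ml BSA, 0.5% salmon testes DNA and 0.03% Triton X-100. The target was an Agilent 4 × 180k array of primer-extended double-stranded 36-bp intergenic genomic probes plus negative controls, read with Alexa488 anti-GST antibody at 488 nm. Binding intensity is the highest Masliner-normalised natural-log median intensity across replicate spots of either probe orientation.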

Sequence	gcPBM binding intensity (ln)
AAAGATATTTTTATCTCACACATATAATATATATAT [CACACA_site5478]	9.66
TATAGAAAATTTATATGTACATATATATATATATAT [XGTACX_site4451]	9.69
TAAAATTTAAGTTATACACACTTAAGTAACATCATC [CACACA_site6395]	9.71
GCATATGTATATAATGTGCACATGGATTATATAAAA	9.87
GTTACTGCATACATAACACACATATTCAAAACACAT [CACACA_site3502]	9.88
TATTTACAGACATGCGCACACATAAATAAATAATAG [CACACA_site2411]	9.84
AAATACAAGGGACATGCATACCACTATTTTTTAAAT [TGCATGCA_site588]	9.58
TTTATATAATAGTTATGTACTTAAACGAAAGATACA [XGTACX_site8495]	9.49
TACATATTTTTCTTTTCACACATGGAAAAAAAAGGT [CACACA_site5146]	9.55
TATTAATTCATTTTTTTTTTTTTTTTTTTTTTTTTT [CACACA_negctrl_site1215]	9.17
ATATATATATATATATATATATATATATATAAGTGG [XGTACX_negctrl_site90]	9.47
CCCTTAATTTAAAACACACAAACAAATAAGTTAGTT [CACACA_site3793]	9.69
TATTTTTTTTTTCACTGTACATACAACAACAAATAT [XGTACX_site8835]	9.61
AATATATTTATTATAACACACACATATATATATTAT [CACACA_site8264]	10.1
GATTTAATAGATACGAGTACAGAAATTGTATACATA [XGTACX_site7563]	9.6
TATATATTTTTTTCATGTACATATAAATTAATTAAA [XGTACX_site8680]	9.34
ACACAAAAAATTAAGTGTACTCATCAAGAAAAAAAA [XGTACX_site3456]	9.81
ATAAAATACCCTGATCTATTACATATTATATTCTGC [GTGCAC_negctrl_site311]	9.58
ATAGGAAAAAGTATTGGTACACATACATATACGTTA [XGTACX_site5819]	9.8
TTATATGTTTTGTGTACACAATTTATTAAATTAATA [CACACA_site5645]	9.85
CAAACAATTAAACAAACACACATATACATGTATATA [CACACA_site2060]	10.1
AAAATAAGCCATATACGTACATACATATATAAATAT [XGTACX_site4197]	9.73

Sequence	gcPBM binding intensity (ln)
TAATTACACTTTAAAAGTACATATATAATAACATTA [XGTACX_site379]	9.47
TTTTTTATGTTCAATTGTACATATACATATATATAT [XGTACX_site6013]	10.2
TTCATATTTCATATATGTACTTATGTTCAATATAGT [XGTACX_site3811]	9.66
AATGGAAAAATAGGCACACACACATAAATACAGATA [CACACA_site4844]	11.2
TAAAAAAAAATAAAAAGTACATATATATATATATAT [XGTACX_site1155]	9.71
AATATGAAACAAGACGCACACATAAATAAATAAATA [CACACA_site326]	10.1
AGTGCTACTCATGATTGAATAGAGGAAAAGGCGGTG [GTGCAC_negctrl_site49]	9.61
CACATAAAAAAATAAACACACATATGTATATAAATA [CACACA_site7483]	9.98
CTTTAAATGATGTAAACACACACATATACATTATTA [CACACA_site9035]	10
CCATATTTAATAAAATGTACTCATTCTTTTATTTTA [XGTACX_site7802]	9.47
TTAATAGTGGAAATATGTACATAATTTTGGTCTTTT [XGTACX_site1664]	9.64
CTGTTCAAAATATGAACACACACATATATATATATA [CACACA_site8638]	10
TTGAAAAATCAGCACACACACAAATACATACATATT [CACACA_site7505]	10.5
ACATATGGCACATATGTACACACGTATAGATAATAT [CACACA_site2024]	10.2
CTAAAAAAATAATAAAGTACACAAACGAATATATAA [XGTACX_site668]	9.82
CTTTTTTGGTACATCACACATTTTTACATTCCCTTT [CACACA_site4957]	10
TTTTTTTTTTTTTTTGCACACTATATTTAATATAAG [CACACA_site2444]	9.54
ATAGATGCATATTATACACACATATGTAAATACATT [CACACA_site4691]	9.95
CCACTATATAAAATCACACATTTATATTATACATAT [CACACA_site4570]	9.93
TTTATTTTAATTTATTGTACATTGTTATCAAGTGCA [XGTACX_site1110]	9.46
TATTGGTAATGTAAATGTACATATAGATATTTACAT [XGTACX_site1922]	9.61
ATAATAGTTAAATGTACACACTAACTACATGGAATA [CACACA_site5753]	9.87

Sequence	gcPBM binding intensity (ln)
AAAAAAAGAAATTAGGTGCATAGCATTAACCGATAA [GTGCAC_site9582]	9.77
TTGAAGTTAATAAAAACTTTATACATGAAATTATTT [CACACA_negctrl_site684]	9.45
GATTCCTTTAACCCTGCACACATACATACATTTATA [CACACA_site9308]	10.1
TATATTTCTTATTACATACACACATATACATATATG [CACACA_site3202]	9.95
TAATAATATAATAATACACACTCATTATATATATAA [CACACA_site6045]	9.69
CCATTCAAATTTCGCACACACATACAAAAAAAAAAA [CACACA_site3093]	10.1
TATAAATGATTAATTTGTACATATTTTACTTAATTG [XGTACX_site5271]	9.63
TAAATAAATAAATATATATATATATATATATATATA [XGTACX_negctrl_site70]	9.37
TTGATGATATCATTTTGTACTTATACGTATTTAAAA [XGTACX_site148]	9.53
ACAAAAAAAAAAAAAATACACACACATAAAAAAAAA [TGCATGCA_negctrl_site333]	10.2
ACAAAATATTTTTCTTCACACATCCATTCAACATTT [CACACA_site5886]	9.91
TATATATATATATATATTAATAATTAATATAAAAGA [XGTACX_negctrl_site32]	9.61
AATCAAAACATTAAAAAGAAAAAATATATATATATA [CACACA_negctrl_site366]	9.29
ATATAGATCTATAATACACACTTATGAAATGTCTAA [CACACA_site6946]	9.73
TTGTTTCCGATGAAAGAAAGGAAATTATAATATATC [GTGCAC_negctrl_site516]	9.29
GTCTCCTTTATTTTTGGTACAGATAAGATAAAAGGA [XGTACX_site1591]	9.32
GTGTTCATATATAGCCGTACATATGTCTTATGAACG [XGTACX_site5647]	9.59
ATTATCAAAAAAAAAAAAAAAAAAAAAAAAAAAAAA [CACACA_negctrl_site1118]	8.87
TATAACATTATTTTGTGTACACATTCGGTTATATTA [XGTACX_site6310]	10
AATCAAAATATATCTACACACATTTAAGTAACCCAT [CACACA_site5846]	10.1
TTTGTGCTTATCCTAACACACACAACATATAAGAAA [CACACA_site9091]	9.83
ATATATATTTTTATAACACACAATGATGTACATTAC [CACACA_site1076]	9.79

Sequence	gcPBM binding intensity (ln)
TGTGTAGCTAGGGGGTTGCTAATTTTTGTTTTGACC [CACACA_negctrl_site634]	9.93
TTATATATACCATAATGTACTCTATTATATAAAAAA [XGTACX_site7464]	9.38
AGAAAAAACAAAAGAGAAATGAAAAAAAAAAAAAAA [XGTACX_negctrl_site482]	8.98
TAAAATAATATTTATGTGCACATATAATTATTAATT	9.6
ATCATAACTTGATACGCACACGTTATATAAATAAAA [CACACA_site4955]	9.67
TTATGTTGCGAGTTCTTAAGATATAAAAAATTCTTC [GTGCAC_negctrl_site45]	9.38
TGAGAATAAAAAAAAGGGATTATTAGATTTCTCCTT [TGCATGCA_negctrl_site326]	9.31
AAGACAAATTGTGACACACACAAAAAAAAAAAAAAA [CACACA_site3727]	9.85
AAAAAAATAAGGTGCACACAAAAAAAAAAAAAAAAA [CACACA_site812]	9.57
ATTCAATAAACGTATTGTACAAAAGAACGATATATT [XGTACX_site2533]	9.78
TATTGGATCACACAAAAATGTATAAATAAATAGAAA [TGCATGCA_negctrl_site490]	9.69
TACCTTATATTATATACACACATATAATATAATATA [CACACA_site1328]	9.78
GATTCATTTCGTAATACACACAACAAATATTTCAAA [CACACA_site1772]	9.68
AATGTAAATAAGTGTACACATATATAATACATACAT [CACACA_site4938]	9.99
TATGTCCATATTTCCACACACATATTATTTTTATAT [CACACA_site3798]	10
TATTAAAAAATTATATGTACACATTTGTTATATACA [XGTACX_site2232]	9.56
ATAAAAAAATAAATAACACACAAAATTACACGAAAA [CACACA_site3620]	10.1
TTCTTTATATATGTTCGTACATATTATTATAATACA [XGTACX_site1549]	9.8
TAATTTTCATGTTCATGTACTTAAATATAAGGTAAA [XGTACX_site3284]	9.35
TGCCTTATTAAAAGAATTACACATATTTAATCGAAA [GTGCAC_negctrl_site153]	9.39
ATTCATAACAAAAAAAGTACTCAAAATAATAATAAA [XGTACX_site6079]	9.6
AGTAATTATTTTAGAGTGCATAGTTTTTTAATAAAT	9.46
